Measurements taken from patent US20200002432A1, “ANTI-CD98 ANTIBODIES AND ANTIBODY DRUG CONJUGATES” (AbbVie Inc., priority 2016, published 2020).
Where a chain is given by its changes, count along the chain named. “And” between values parts separate entries of the source, which are not always exact repeats. Identical values can stand only once.

B1: CD98 (CL-huAb104)-SR (conjugate)
heavy: EVQLVESGGGLVQPGGSLRLSCATSGFTFIDYYMSWVRQAPGKGLEWLGFIRNKAYGYTTEYSASVKGRFTISRDNSKSILYLQMNSLKTEDTAVYYCTRDRPAWFVYWGQGTLVTVSSASTKGPSVFPLAPSSKSTSGGTAALGCLVKDYFPEPVTVSWNSGALTSGVHTFPAVLQSSGLYSLSSVVTVPSSSLGTQTYICNVNHKPSNTKVDKKV[skipping human IgG1 Fc with changes]
light: DIVMTQTPLSLPVTPGEPASISCKSSQSLLYSSNQKNYLAWYLQKPGQSPQLLIYWASTRESGVPDRFSGSGSGTDFTLKISRVEAEDVGVYYCQQYYSYPYTFGGGTKVEIKRTVAAPSVFIFPPSDEQLKSGTASVVCLLNNFYPREAKVQWKVDNALQSGNSQESVTEQDSKDSTYSLSSTLTLSKADYEKHKVYACEVTHQGLSSPVTKSFNRGEC
B2: CD98 (CL-huAb110)-SR (conjugate)
heavy: EVQLVQSGAEVKKPGASVKVSCKASGFTFSDYTMAWVRQAPGQGLEWVATIIYDARGTYYRDAVKGRFTITRDNSTSTLYLELSSLRSEDTAVYYCARQSDDTYYYWGYFDYWGQGTMVTVSSASTKGPSVFPLAPSSKSTSGGTAALGCLVKDYFPEPVTVSWNSGALTSGVHTFPAVLQSSGLYSLSSVVTVPSSSLGTQTYICNVNHKPSNTKVDKKV[skipping human IgG1 Fc with changes]
light: B1 light with S22N, Y31F, S33G, E61Q, V91I, Y100S, G106Q, V110L
B3: CD98 (CL-huAb102)-YG (conjugate)
heavy: EVQLVESGGGLVQPGGSLRLSCATSGFTFIDYYMSWVRQAPGKGLEWLGFIRNKANRYTTEYSASVKGRFTISRDNSKSILYLQMNSLKTEDTAVYYCTRDRPAWFVYWGQGTLVTVSSASTKGPSVFPLAPSSKSTSGGTAALGCLVKDYFPEPVTVSWNSGALTSGVHTFPAVLQSSGLYSLSSVVTVPSSSLGTQTYICNVNHKPSNTKVDKKV[skipping human IgG1 Fc with changes]
light: B1 light
B4: CD98 (CL-huAb104)-YG (conjugate)
heavy: EVQLVESGGGLVQPGGSLRLSCATSGFTFIDYYMSWVRQAPGKGLEWLGFIRNKAYGYTTEYSASVKGRFTISRDNSKSILYLQMNSLKTEDTAVYYCTRDRPAWFVYWGQGTLVTVSSASTKGPSVFPLAPSSKSTSGGTAALGCLVKDYFPEPVTVSWNSGALTSGVHTFPAVLQSSGLYSLSSVVTVPSSSLGTQTYICNVNHKPSNTKVDKKV[skipping human IgG1 Fc with changes]
light: B1 light
B5: CD98 (CL-huAb110)-YG (conjugate)
heavy: EVQLVQSGAEVKKPGASVKVSCKASGFTFSDYTMAWVRQAPGQGLEWVATIIYDARGTYYRDAVKGRFTITRDNSTSTLYLELSSLRSEDTAVYYCARQSDDTYYYWGYFDYWGQGTMVTVSSASTKGPSVFPLAPSSKSTSGGTAALGCLVKDYFPEPVTVSWNSGALTSGVHTFPAVLQSSGLYSLSSVVTVPSSSLGTQTYICNVNHKPSNTKVDKKV[skipping human IgG1 Fc with changes]
light: B1 light with S22N, Y31F, S33G, E61Q, V91I, Y100S, G106Q, V110L
B6: CD98 (CL-huAb102)-KZ (conjugate)
heavy: EVQLVESGGGLVQPGGSLRLSCATSGFTFIDYYMSWVRQAPGKGLEWLGFIRNKANRYTTEYSASVKGRFTISRDNSKSILYLQMNSLKTEDTAVYYCTRDRPAWFVYWGQGTLVTVSSASTKGPSVFPLAPSSKSTSGGTAALGCLVKDYFPEPVTVSWNSGALTSGVHTFPAVLQSSGLYSLSSVVTVPSSSLGTQTYICNVNHKPSNTKVDKKV[skipping human IgG1 Fc with changes]
light: B1 light
B7: CD98 (CL-huAb104)-KZ (conjugate)
heavy: EVQLVESGGGLVQPGGSLRLSCATSGFTFIDYYMSWVRQAPGKGLEWLGFIRNKAYGYTTEYSASVKGRFTISRDNSKSILYLQMNSLKTEDTAVYYCTRDRPAWFVYWGQGTLVTVSSASTKGPSVFPLAPSSKSTSGGTAALGCLVKDYFPEPVTVSWNSGALTSGVHTFPAVLQSSGLYSLSSVVTVPSSSLGTQTYICNVNHKPSNTKVDKKV[skipping human IgG1 Fc with changes]
light: B1 light
B8: CD98 (CL-huAb102)-CZ (conjugate)
heavy: EVQLVESGGGLVQPGGSLRLSCATSGFTFIDYYMSWVRQAPGKGLEWLGFIRNKANRYTTEYSASVKGRFTISRDNSKSILYLQMNSLKTEDTAVYYCTRDRPAWFVYWGQGTLVTVSSASTKGPSVFPLAPSSKSTSGGTAALGCLVKDYFPEPVTVSWNSGALTSGVHTFPAVLQSSGLYSLSSVVTVPSSSLGTQTYICNVNHKPSNTKVDKKV[skipping human IgG1 Fc with changes]
light: B1 light
B9: CD98 (CL-huAb102)-AAA (conjugate)
heavy: EVQLVESGGGLVQPGGSLRLSCATSGFTFIDYYMSWVRQAPGKGLEWLGFIRNKANRYTTEYSASVKGRFTISRDNSKSILYLQMNSLKTEDTAVYYCTRDRPAWFVYWGQGTLVTVSSASTKGPSVFPLAPSSKSTSGGTAALGCLVKDYFPEPVTVSWNSGALTSGVHTFPAVLQSSGLYSLSSVVTVPSSSLGTQTYICNVNHKPSNTKVDKKV[skipping human IgG1 Fc with changes]
light: B1 light
B10: CD98 (CL-huAb104)-CZ (conjugate)
heavy: EVQLVESGGGLVQPGGSLRLSCATSGFTFIDYYMSWVRQAPGKGLEWLGFIRNKAYGYTTEYSASVKGRFTISRDNSKSILYLQMNSLKTEDTAVYYCTRDRPAWFVYWGQGTLVTVSSASTKGPSVFPLAPSSKSTSGGTAALGCLVKDYFPEPVTVSWNSGALTSGVHTFPAVLQSSGLYSLSSVVTVPSSSLGTQTYICNVNHKPSNTKVDKKV[skipping human IgG1 Fc with changes]
light: B1 light
B11: CD98 (CL-huAb104)-AAA (conjugate)
heavy: EVQLVESGGGLVQPGGSLRLSCATSGFTFIDYYMSWVRQAPGKGLEWLGFIRNKAYGYTTEYSASVKGRFTISRDNSKSILYLQMNSLKTEDTAVYYCTRDRPAWFVYWGQGTLVTVSSASTKGPSVFPLAPSSKSTSGGTAALGCLVKDYFPEPVTVSWNSGALTSGVHTFPAVLQSSGLYSLSSVVTVPSSSLGTQTYICNVNHKPSNTKVDKKV[skipping human IgG1 Fc with changes]
light: B1 light
B12: CD98 (CL-huAb108)-CZ (conjugate)
heavy: EVQLVQSGAEVKKPGASVKVSCKASGFTFSDYTMAWVRQAPGQGLEWVATIIYSGRGTYYRDAVKGRFTITRDNSTSTLYLELSSLRSEDTAVYYCARQSDDTYYYWGYFDYWGQGTMVTVSSASTKGPSVFPLAPSSKSTSGGTAALGCLVKDYFPEPVTVSWNSGALTSGVHTFPAVLQSSGLYSLSSVVTVPSSSLGTQTYICNVNHKPSNTKVDKKV[skipping human IgG1 Fc with changes]
light: B1 light with S22N, Y31F, S33G, E61Q, V91I, S99D, Y100V, G106Q, V110L
B13: CD98 (CL-huAb108)-AAA (conjugate)
heavy: EVQLVQSGAEVKKPGASVKVSCKASGFTFSDYTMAWVRQAPGQGLEWVATIIYSGRGTYYRDAVKGRFTITRDNSTSTLYLELSSLRSEDTAVYYCARQSDDTYYYWGYFDYWGQGTMVTVSSASTKGPSVFPLAPSSKSTSGGTAALGCLVKDYFPEPVTVSWNSGALTSGVHTFPAVLQSSGLYSLSSVVTVPSSSLGTQTYICNVNHKPSNTKVDKKV[skipping human IgG1 Fc with changes]
light: B1 light with S22N, Y31F, S33G, E61Q, V91I, S99D, Y100V, G106Q, V110L
B14: CD98 (CL-huAb110)-CZ (conjugate)
heavy: EVQLVQSGAEVKKPGASVKVSCKASGFTFSDYTMAWVRQAPGQGLEWVATIIYDARGTYYRDAVKGRFTITRDNSTSTLYLELSSLRSEDTAVYYCARQSDDTYYYWGYFDYWGQGTMVTVSSASTKGPSVFPLAPSSKSTSGGTAALGCLVKDYFPEPVTVSWNSGALTSGVHTFPAVLQSSGLYSLSSVVTVPSSSLGTQTYICNVNHKPSNTKVDKKV[skipping human IgG1 Fc with changes]
light: B1 light with S22N, Y31F, S33G, E61Q, V91I, Y100S, G106Q, V110L
B15: CD98 (CL-huAb102)-TX (conjugate)
heavy: EVQLVESGGGLVQPGGSLRLSCATSGFTFIDYYMSWVRQAPGKGLEWLGFIRNKANRYTTEYSASVKGRFTISRDNSKSILYLQMNSLKTEDTAVYYCTRDRPAWFVYWGQGTLVTVSSASTKGPSVFPLAPSSKSTSGGTAALGCLVKDYFPEPVTVSWNSGALTSGVHTFPAVLQSSGLYSLSSVVTVPSSSLGTQTYICNVNHKPSNTKVDKKV[skipping human IgG1 Fc with changes]
light: B1 light
B16: CD98 (CL-huAb108)-TX (conjugate)
heavy: EVQLVQSGAEVKKPGASVKVSCKASGFTFSDYTMAWVRQAPGQGLEWVATIIYSGRGTYYRDAVKGRFTITRDNSTSTLYLELSSLRSEDTAVYYCARQSDDTYYYWGYFDYWGQGTMVTVSSASTKGPSVFPLAPSSKSTSGGTAALGCLVKDYFPEPVTVSWNSGALTSGVHTFPAVLQSSGLYSLSSVVTVPSSSLGTQTYICNVNHKPSNTKVDKKV[skipping human IgG1 Fc with changes]
light: B1 light with S22N, Y31F, S33G, E61Q, V91I, S99D, Y100V, G106Q, V110L

What was measured:
[1] = system: Molt-4 human acute lymphoblastic leukemia cell line; assay: Growth inhibition assay, ATPlite 1 step, 72 hours; type: cell-based; conditions: Molt-4 cells; for IC50: ATPlite 1 step, read-out: Molt4 IC50; for % Cell Viability at 50 nM: 50 nM ADC
Method: The activities of these ADCs were tested in growth inhibition assays in the Molt-4 human acute lymphoblastic leukemia cell line. Briefly, 5000 Molt-4 cells per well in 96-well plates were treated with ADCs in serial dilution for 72 hours. The number of viable cells was determined by the ATPlite 1 step reagent (PerkinElmer 6016739) as instructed by the manufacturer. Data was analyzed using Graphpad Prism software and IC50 values were reported as the concentration of ADC to achieve 50% inhibition of cell proliferation (Table 27).

[2] = system: NCI-H146 (human small cell lung cancer) xenograft; assay: NCI-H146 xenograft tumor growth inhibition in SCID-bg mice; type: in vivo, mouse; conditions: single dose 10 mg/kg/day, QD × 1/IP
[3] = system: NCI-H460 human lung carcinoma xenograft; assay: NCI-H460 xenograft tumor growth inhibition in SCID-bg mice, with or without docetaxel; type: in vivo, mouse; conditions: QD × 1, Ab095 8 mg/kg IP, docetaxel 7.5 mg/kg IV, ADC 10 mg/kg IP, combination 7.5 + 10
Method: (§1) The cell lines A549 and NCI-H460 were obtained from the American Type Culture Collection (ATCC, Manassas, Va.). A549 cell line was further passaged in mice as flank xenograft to improve xenograft tumor growth, resulting in the A549-FP3 line. Cells were cultured as monolayers in RPMI-1640 culture media (Invitrogen, Carlsbad, Calif.) supplemented with 10% Fetal Bovine Serum (FBS, Hyclone, Logan, Utah). To generate xenografts, 5×10^6 (A549 and NCI-H460) viable cells were inoculated subcutaneously into the right flank of immune deficient female SCID-bg mice (Charles River Laboratories, Wilmington, Mass.). The injection volume was 0.2 ml and composed of 1:1 S-MEM:Matrigel Matrigel (BD, Franklin Lakes, N.J.). Tumors were size matched at approximately 223 mm^3. Antibodies, conjugates, and docetaxel were formulated in 0.9% sodium chloride for injection. […] Therapy began within 24 hours after size matching of the tumors. Mice weighed approximately 21 g at the onset of therapy. Tumor volume was estimated two to three times weekly. Measurements of the length (L) and width (W) of the tumor were taken via electronic caliper and the volume was calculated according to the following equation: V=L×W^2/2. […] Eight mice were housed per cage. […] Tumor growth inhibition is calculated by 100*(1−Tv/Cv) where Tv and Cv are the mean tumor volumes of the treated and control groups, respectively.

[4] = system: A549-FP3 human lung carcinoma xenograft; assay: A549 FP3 xenograft tumor growth inhibition in SCID-bg mice, with or without docetaxel; type: in vivo, mouse; conditions: QD × 1, Ab095 8 mg/kg IP, docetaxel 7.5 mg/kg IV, ADC 10 mg/kg IP, combination 7.5 + 10
Method: as §1

Molecule | IC50 [1] | % Cell Viability at 50 nM [1] | TGImax (%) [2] | other results
B1 | 0.045 nM | – | – | –
B2 | 0.332 nM | 11.0% | – | –
B3 | 1.21 nM | 31.9% | – | –
B4 | 2.67 nM | 25.3% | – | –
B5 | 0.493 nM | 10.0% | – | –
B6 | – | 20.7% and 16.2% | – | –
B7 | 0.089 nM | 21.2% | – | –
B8 | 0.015 nM | 1.0% | 93% | –
B9 | – | – | 69% | –
B10 | – | – | 90% | –
B11 | – | – | 61% | –
B12 | – | – | 93% | –
B13 | – | – | 61% | –
B14 | – | – | 92% | –
B15 | – | – | 92% | –
B16 | – | – | – | TGD (%) [3]: 22%; TGImax (%) [3]: 35%; TGD (%) [4]: 60%; TGImax (%) [4]: 57%
